{"source": "PubChem BioAssay AID1347073", "about": "(National Center for Advancing Translational Sciences (NCATS), 2019)", "note": "The campaign covered roughly 45,000 compounds. About 200 (0.44%) were called active. Inconclusive results (about 7%) are left out. Calls follow the shape of the dose curve; as a rule, active = well fitted activation curve with a large enough effect; inconclusive = small, poorly fitted or top-dose-only effect; inactive = no such curve, though single readings can be large or run the other way. The list shows a part of the results.", "data": [{"assay": "qHTS of TDP-43 Inhibitors: NCGC Sytravon Library Screen; also: 0% is about no effect; nearly all actives have a fitted effect of over 55% in size", "details": "yeast TDP-43 toxicity rescue, BacTiter-Glo growth, 24 h; series mostly up to 46.1 µM; growth rescue (activation): at the top concentration", "outline": "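TDP-43-expressing yeast, pregrown in raffinose, seeded at OD600 0.02 in galactose medium with compound for 24 hr at 30 deg C. Growth read by BacTiter-Glo luminescence, so rescue of toxicity appears as activation.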", "values": [{"compound": "CN1C(=O)[C@@H]2[C@@H]3C[C@@H]([C@H]4ON=C(c5ccc(Cl)cc5)[C@@H]34)[C@@H]2C1=O", "growth rescue (activation)": "inactive: 1.98%"}, {"compound": "O=C(CN1C(=O)NC2(CCCC2)C1=O)Nc1ccc(F)c([N+](=O)[O-])c1", "growth rescue (activation)": "inactive: -6.1%"}, {"compound": "CCc1nc2ccc(C(=O)Nc3cccc(NS(C)(=O)=O)c3)cn2c1N(C)C(=O)c1cccc(OC)c1", "growth rescue (activation)": "inactive: 8.36%"}, {"compound": "O=C1CCCN1CCCNC(=S)Nc1cccc2ccccc12", "growth rescue (activation)": "inactive: -11.6%"}, {"compound": "O=C(NCCc1ccccc1)c1ccc2c(c1)N(Cc1ccc(F)cc1)C(=O)c1ccccc1S2(=O)=O", "growth rescue (activation)": "inactive: 5.28%"}, {"compound": "Cc1nn(-c2ccccc2)c2c1C(c1ccc(F)cc1)C(C#N)=C(N)O2", "note": "(centres undefined)", "growth rescue (activation)": "inactive: 4.08%"}, {"compound": "COc1ccc2oc(C(=O)NCC(Cc3ccccc3)N(C)C)c(C)c2c1", "note": "(centres undefined)", "growth rescue (activation)": "inactive: 13.3%"}, {"compound": "CCCCOC(=O)/C=C/c1ccc(OC(=O)OC)c(OC(=O)OC)c1", "growth rescue (activation)": "inactive: -35.5%"}, {"compound": "O=C(CN1CCCCC1)Nc1c2c(nc3ccccc13)N(c1ccccc1)CC2", "growth rescue (activation)": "inactive: 4.38%"}, {"compound": "CCOC(=O)C1=C(CC)OC(N)=C(C#N)C1c1ccc(NC(C)=O)cc1", "note": "(centres undefined)", "growth rescue (activation)": "inactive: 3.8%"}, {"compound": "Cc1cccc(Cn2c(O)c(N=NC(=S)Nc3ccccc3F)c3ccccc32)c1", "growth rescue (activation)": "inactive: 21.7%"}, {"compound": "Cc1cccc(NS(=O)(=O)c2ccc3c(c2)oc(=O)n3C)c1C", "growth rescue (activation)": "inactive: 4.48%"}, {"compound": "O=C(Nc1cc(S(=O)(=O)N2CCCCC2)ccc1O)c1ccccc1NS(=O)(=O)c1ccc(F)cc1", "growth rescue (activation)": "inactive: 4.5%"}, {"compound": "O=C(NC(=S)N1CCN(c2ccccc2)CC1)c1ccco1", "growth rescue (activation)": "inactive: 25.1%"}, {"compound": "Cc1ccc(/C=N/N2CCN(Cc3cccc4ccccc34)CC2)s1", "growth rescue (activation)": "inactive: -4.1%"}, {"compound": "CN(C)S(=O)(=O)c1cccc(NC(=O)COC(=O)/C=C/c2cccs2)c1", "growth rescue (activation)": "inactive: 5.72%"}, {"compound": "COc1ccccc1CN(C)CC(=O)NC1CCCc2ccccc21", "note": "(centres undefined)", "growth rescue (activation)": "inactive: 1.9%"}, {"compound": "O=c1c2ccccc2[nH]c2ccc(O)cc12", "growth rescue (activation)": "inactive: -35.9%"}, {"compound": "CN(C)C(CNC(=O)C1CCN(S(=O)(=O)c2cccc(Cl)c2Cl)CC1)c1ccccc1", "note": "(centres undefined)", "growth rescue (activation)": "inactive: 21.6%"}, {"compound": "Cc1cc(N2C(=O)C3C4C=CC(C4)C3C2=O)ccc1NC(=O)c1cccs1", "note": "(centres undefined)", "growth rescue (activation)": "inactive: -24.4%"}, {"compound": "CC(=O)Nc1ccc(S(=O)(=O)NCCOc2ccc(Cl)cc2C)cc1", "growth rescue (activation)": "inactive: -12.3%"}, {"compound": "c1ccc(-c2c[n+]3c(n2-c2ccccc2)SCC3)cc1", "growth rescue (activation)": "inactive: -20.1%"}, {"compound": "CN(C(=O)c1cc(-c2ccccc2)on1)C1CCCCC1", "growth rescue (activation)": "inactive: 22.1%"}, {"compound": "O=C(COc1c(F)c(F)cc(F)c1F)NNC(=O)CC1CCS(=O)(=O)C1", "note": "(centres undefined)", "growth rescue (activation)": "inactive: 17.7%"}, {"compound": "COCCn1c(Cc2ccccc2)nnc1SCC(=O)Nc1ccccc1", "growth rescue (activation)": "inactive: -5.82%"}, {"compound": "O=C(O)C1CCCCC1C(=O)NCCc1ccc(F)cc1", "note": "(centres undefined)", "growth rescue (activation)": "inactive: 7.6%"}, {"compound": "O=C(Nc1ccccc1)Nc1ncc([N+](=O)[O-])s1", "growth rescue (activation)": "inactive: -6.86%"}, {"compound": "COc1ccc(S(=O)(=O)NC(C)C(=O)NCC2CCCO2)cc1OC", "note": "(centres undefined)", "growth rescue (activation)": "inactive: -3.51%"}, {"compound": "CC(=O)/C(=C/N(C)C)C(=O)Nc1ccc(Cl)cc1Cl", "growth rescue (activation)": "inactive: -55.1%"}, {"compound": "CC(=O)N(NC(N)=O)C(C)CC(=O)C1C(C)C=CCC1(C)C", "note": "(centres undefined)", "growth rescue (activation)": "inactive: 2.26%"}, {"compound": "O=C(COc1ccccc1Cc1ccccc1)NCCCN1CCOCC1", "growth rescue (activation)": "inactive: 29.4%"}, {"compound": "CN1c2ccccc2C(O)=C(C(=S)Nc2ccc(F)c(Cl)c2)S1(=O)=O", "growth rescue (activation)": "inactive: -86.3%"}, {"compound": "Cn1c(=O)c(C(=O)COc2ccc(C#N)cc2)c(N)n(Cc2ccccc2)c1=O", "growth rescue (activation)": "inactive: 17.4%"}, {"compound": "OC(Cn1cnnc1)c1ccccc1", "note": "(centres undefined)", "growth rescue (activation)": "inactive: -4.09%"}, {"compound": "OCC1(Cc2ccc(Cl)cc2)CCN(Cc2ccc(Oc3ncccn3)cc2)CC1", "growth rescue (activation)": "inactive: -6.59%"}, {"compound": "COC(=O)c1ccc(NC(=O)c2ccc(NS(=O)(=O)c3cccc4cccnc34)cc2)cc1", "growth rescue (activation)": "inactive: -4.04%"}, {"compound": "CCN(CC)C(=S)Nc1ccc(OC)cc1", "growth rescue (activation)": "inactive: 16.2%"}, {"compound": "CCOC(=O)C1(C)CCCN(C(=O)c2cccc(Cl)c2)C1", "note": "(centres undefined)", "growth rescue (activation)": "inactive: 8.57%"}, {"compound": "O=[N+]([O-])c1ccc(-n2nnnc2CN2CCCCC2)cc1", "growth rescue (activation)": "inactive: 10.4%"}, {"compound": "S=C(NCCN1CCCCC1)Nc1ccc(Br)cc1", "growth rescue (activation)": "inactive: 1.09%"}, {"compound": "CC(=O)c1cccc(NC(=O)CC2S/C(=N/N=C3CCCCCC3)NC2=O)c1", "note": "(centres undefined)", "growth rescue (activation)": "inactive: -7.73%"}, {"compound": "COc1ccc(C(C)=O)cc1CSc1nnc2c(Cl)cc(Cl)cn12", "growth rescue (activation)": "inactive: 18.9%"}, {"compound": "CC(C)(C)C(=O)Nc1ccnn1C1CCN(C(=O)c2ccc(Cl)cc2F)CC1", "growth rescue (activation)": "inactive: -28.5%"}, {"compound": "Cc1cc(C(=O)Nc2cccc3ccccc23)c(C)o1", "growth rescue (activation)": "inactive: 5.93%"}, {"compound": "CCCN1CCN(CCCNC(=S)Nc2ccc(OC)cc2)CC1", "growth rescue (activation)": "inactive: 7.23%"}, {"compound": "CC(=O)Nc1cccc(Nc2nc(-c3ccccc3F)nc3ccccc23)c1", "growth rescue (activation)": "inactive: 8.68%"}, {"compound": "O=C(Nc1cccc(Cl)c1)Nc1c[nH]c(=O)[nH]c1=O", "growth rescue (activation)": "inactive: 8.48%"}, {"compound": "COC(=O)/N=C/c1c(NCc2ccccc2)nc2c(C)cccn2c1=O", "growth rescue (activation)": "inactive: 22.1%"}, {"compound": "CCC(C)C(NC(=O)C1CCC(C)CC1)C(=O)NCc1ccco1", "note": "(centres undefined)", "growth rescue (activation)": "inactive: 1.68%"}, {"compound": "COc1cccc2cc(C(C)N(CCCN3CCOCC3)C(=S)Nc3ccccc3C)oc12", "note": "(centres undefined)", "growth rescue (activation)": "inactive: 11.7%"}, {"compound": "COc1ccc(CNC(=O)CSc2nn3c(=O)c(C(C)(C)C)nnc3s2)cc1OC", "growth rescue (activation)": "inactive: 10.8%"}, {"compound": "CCC1=[N+](CC(=O)c2ccc(C)cc2)CCn2c(C)ccc21", "growth rescue (activation)": "inactive: 11.6%"}, {"compound": "O=C(NC(=S)Nc1ccc(CN2CCOCC2)cc1)c1ccc([N+](=O)[O-])cc1Cl", "growth rescue (activation)": "inactive: -5.51%"}, {"compound": "CCCN1C(=O)C(Cc2nc3ccccc3c(=O)n2CC)c2ccccc21", "note": "(centres undefined)", "growth rescue (activation)": "inactive: 11%"}, {"compound": "CC1CN(/C=C/C(=O)C(F)(F)F)CC(C)O1", "note": "(centres undefined)", "growth rescue (activation)": "inactive: 12.7%"}, {"compound": "O=C(NCc1ccc(Cl)cc1)c1cccc(NC(=O)c2ccccc2)c1", "growth rescue (activation)": "inactive: 4.04%"}, {"compound": "O=C(/C=C/Nc1ccc(Oc2ccccc2)cc1)c1ccco1", "growth rescue (activation)": "inactive: -5.42%"}, {"compound": "CN1CCN(c2nc(N3CCN(CCO)CC3)nc3ccccc23)CC1", "growth rescue (activation)": "inactive: 13.5%"}, {"compound": "CC(C)CN1C(=O)c2ccc(C(=O)Nc3nccs3)cc2C1=O", "growth rescue (activation)": "inactive: -8.59%"}, {"compound": "CCN(Cc1cc(=O)n2ccsc2n1)Cc1nc2ccccc2c(=O)[nH]1", "growth rescue (activation)": "inactive: -4.1%"}, {"compound": "CC(C)S(=O)(=O)C1=NSC2=NC(=O)/C(=C\\c3ccc(-c4cccc(C(=O)O)c4)o3)C(=N)N21", "growth rescue (activation)": "inactive: 7.64%"}, {"compound": "Cn1cccc2[nH]c(=O)nc1-2", "growth rescue (activation)": "inactive: 7.85%"}, {"compound": "O=C(O)C1CCCN1S(=O)(=O)c1ccc(Br)s1", "note": "(centres undefined) (tested in a mixture with another compound)", "growth rescue (activation)": "inactive: 7.19%"}, {"compound": "COc1ccc(NC(=O)c2ccccc2SC)cc1", "growth rescue (activation)": "inactive: 23.1%"}, {"compound": "O=C(CCN1CCCCO1)N1CCCC(Nc2cccc(F)c2)C1", "note": "(centres undefined)", "growth rescue (activation)": "inactive: 9.64%"}, {"compound": "Cc1ccc(NC(=O)O/N=C/c2cccc([N+](=O)[O-])c2)cc1", "growth rescue (activation)": "inactive: 13.5%"}, {"compound": "CS(=O)(=O)N(CC(=O)N1CCCCC1)Cc1ccc(Cl)cc1", "growth rescue (activation)": "inactive: 5.24%"}, {"compound": "Cc1c(F)cccc1NS(=O)(=O)c1ccc(N2CCCC2=O)cc1", "growth rescue (activation)": "inactive: 4.05%"}, {"compound": "COc1ccc(N(CC(=O)NCc2ccc(F)cc2)C(=O)CCC(=O)Nc2nccs2)cc1", "growth rescue (activation)": "inactive: -3.2%"}]}]}
